Data as given in the supplement of paper PMC8728848.
The other results are listed elsewhere or left out.

Experiments:
Assay in all cases: glycan array binding signal (z-score within array); higher = stronger binding
Conditions in all cases: glycan notation: IUPAC condensed, linker removed
[1] = target: Neu5Ac(a2-3)Gal(b1-3)GalNAc(b1-3)Gal(b1-4)GlcNAc
How it was run: (§1)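 Glycan array data were curated from 3228 arrays in the Consortium for Functional Glycomics database and kept only where the protein sequence was available. Glycan names were converted to IUPAC-condensed notation, and columns mapping to the same glycan were averaged. The binding signal is a within-array Z-score, averaged across arrays of the same protein sequence at different concentrations or buffers and across linkers. Negative Z-scores can be read as non-binding.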

[2] = target: Neu5Ac(a2-3)Gal(b1-3)GalNAc(b1-4)[Neu5Ac(a2-3)]Gal(b1-4)Glc
How it was run: as §1

[3] = target: Neu5Ac(a2-3)Gal(b1-3)GalNAc6S
How it was run: as §1

[4] = target: Neu5Ac(a2-3)Gal(b1-3)GlcNAc
How it was run: as §1

[5] = target: Neu5Ac(a2-3)Gal(b1-3)GlcNAc6S
How it was run: as §1

[6] = target: Neu5Ac(a2-3)Gal(b1-3)[Fuc(a1-4)]GlcNAc
How it was run: as §1

[7] = target: Neu5Ac(a2-3)Gal(b1-3)[Fuc(a1-4)]GlcNAc(b1-3)Gal(b1-4)[Fuc(a1-3)]GlcNAc
How it was run: as §1

[8] = target: Neu5Ac(a2-3)Gal(b1-3)[Neu5Ac(a2-3)Gal(b1-4)]GlcNAc
How it was run: as §1

[9] = target: Neu5Ac(a2-3)Gal(b1-3)[Neu5Ac(a2-6)]GalNAc
How it was run: as §1

Neu5Ac(a2-3)Gal(b1-4)Glc = target: Neu5Ac(a2-3)Gal(b1-4)Glc
How it was run: as §1

[10] = target: Neu5Ac(a2-3)Gal(b1-4)GlcNAc
How it was run: as §1

[11] = target: Neu5Ac(a2-3)Gal(b1-4)GlcNAc(b1-2)Man(a1-3)[Neu5Ac(a2-3)Gal(b1-4)GlcNAc(b1-2)Man(a1-6)]Man(b1-4)GlcNAc(b1-4)GlcNAc
How it was run: as §1

[12] = target: Neu5Ac(a2-3)Gal(b1-4)GlcNAc(b1-3)Gal(b1-4)GlcNAc
How it was run: as §1

[13] = target: Neu5Ac(a2-3)Gal(b1-4)GlcNAc(b1-3)Gal(b1-4)GlcNAc(b1-3)Gal(b1-4)GlcNAc
How it was run: as §1

[14] = target: Neu5Ac(a2-3)Gal(b1-4)GlcNAc(b1-3)Gal(b1-4)[Fuc(a1-3)]GlcNAc
How it was run: as §1

[15] = target: Neu5Ac(a2-3)Gal(b1-4)GlcNAc6S
How it was run: as §1

[16] = target: Neu5Ac(a2-3)Gal(b1-4)[Fuc(a1-3)]GlcNAc
How it was run: as §1

[17] = target: Neu5Ac(a2-3)Gal(b1-4)[Fuc(a1-3)]GlcNAc(b1-3)Gal
How it was run: as §1

[18] = target: Neu5Ac(a2-3)Gal(b1-4)[Fuc(a1-3)]GlcNAc(b1-3)Gal(b1-4)GlcNAc
How it was run: as §1

[19] = target: Neu5Ac(a2-3)Gal(b1-4)[Fuc(a1-3)]GlcNAc(b1-3)Gal(b1-4)[Fuc(a1-3)]GlcNAc(b1-3)Gal(b1-4)[Fuc(a1-3)]GlcNAc
How it was run: as §1

[20] = target: Neu5Ac(a2-3)Gal(b1-4)[Fuc(a1-3)]GlcNAc6S
How it was run: as §1

[21] = target: Neu5Ac(a2-3)Gal6S(b1-4)GlcNAc
How it was run: as §1

[22] = target: Neu5Ac(a2-3)Gal6S(b1-4)[Fuc(a1-3)]GlcNAc
How it was run: as §1

Neu5Ac(a2-3)GalNAc = target: Neu5Ac(a2-3)GalNAc
How it was run: as §1

[23] = target: Neu5Ac(a2-3)GalNAc(b1-4)GlcNAc
How it was run: as §1

[24] = target: Neu5Ac(a2-3)[GalNAc(b1-4)]Gal(b1-4)Glc
How it was run: as §1

[25] = target: Neu5Ac(a2-3)[GalNAc(b1-4)]Gal(b1-4)GlcNAc
How it was run: as §1

[26] = target: Neu5Ac(a2-3)[Neu5Ac(a2-6)]GalNAc
How it was run: as §1

Neu5Ac(a2-6)Gal = target: Neu5Ac(a2-6)Gal
How it was run: as §1

Neu5Ac(a2-6)Gal(b1-4)Glc = target: Neu5Ac(a2-6)Gal(b1-4)Glc
How it was run: as §1

[27] = target: Neu5Ac(a2-6)Gal(b1-4)GlcNAc
How it was run: as §1

[28] = target: Neu5Ac(a2-6)Gal(b1-4)GlcNAc(b1-3)Gal(b1-4)GlcNAc
How it was run: as §1

[29] = target: Neu5Ac(a2-6)Gal(b1-4)GlcNAc(b1-3)Gal(b1-4)[Fuc(a1-3)]GlcNAc(b1-3)Gal(b1-4)[Fuc(a1-3)]GlcNAc
How it was run: as §1

[30] = target: Neu5Ac(a2-6)Gal(b1-4)GlcNAc6S
How it was run: as §1

Neu5Ac(a2-6)GalNAc = target: Neu5Ac(a2-6)GalNAc
How it was run: as §1

[31] = target: Neu5Ac(a2-6)GalNAc(b1-4)GlcNAc
How it was run: as §1

Neu5Ac(a2-8)Neu5Ac = target: Neu5Ac(a2-8)Neu5Ac
How it was run: as §1

[32] = target: Neu5Ac(a2-8)Neu5Ac(a2-3)Gal(b1-4)Glc
How it was run: as §1

[33] = target: Neu5Ac(a2-8)Neu5Ac(a2-3)[GalNAc(b1-4)]Gal(b1-4)Glc
How it was run: as §1

[34] = target: Neu5Ac(a2-8)Neu5Ac(a2-8)Neu5Ac
How it was run: as §1

[35] = target: Neu5Ac(a2-8)Neu5Ac(a2-8)Neu5Ac(a2-3)Gal(b1-4)Glc
How it was run: as §1

[36] = target: Neu5Ac(a2-8)Neu5Ac(a2-8)Neu5Ac(a2-3)[GalNAc(b1-4)]Gal(b1-4)Glc
How it was run: as §1

[37] = target: Neu5Ac(a2-8)Neu5Ac(a2-8)Neu5Ac(a2-8)Neu5Ac(a2-3)[GalNAc(b1-4)]Gal(b1-4)Glc
How it was run: as §1

Neu5Ac(b1-6)GalNAc = target: Neu5Ac(b1-6)GalNAc
How it was run: as §1

[38] = target: Neu5Ac(b2-6)Gal(b1-4)GlcNAc
How it was run: as §1

[39] = target: Neu5Ac9Ac(a2-6)Gal(b1-4)GlcNAc
How it was run: as §1

[40] = target: Neu5Gc(a2-3)Gal(b1-3)GlcNAc
How it was run: as §1

[41] = target: Neu5Gc(a2-3)Gal(b1-3)[Fuc(a1-4)]GlcNAc
How it was run: as §1

Neu5Gc(a2-3)Gal(b1-4)Glc = target: Neu5Gc(a2-3)Gal(b1-4)Glc
How it was run: as §1

[42] = target: Neu5Gc(a2-3)Gal(b1-4)GlcNAc
How it was run: as §1

[43] = target: Neu5Gc(a2-3)Gal(b1-4)[Fuc(a1-3)]GlcNAc
How it was run: as §1

[44] = target: Neu5Gc(a2-6)Gal(b1-4)GlcNAc
How it was run: as §1

Neu5Gc(a2-6)GalNAc = target: Neu5Gc(a2-6)GalNAc
How it was run: as §1

B1: F4 (Escherichia coli), A0A6L9DDF0 (protein)
chain: MKKTLIALALAASAVSGMAHAWTSGDFNGTVDIGGSIDATNYRQKWEWEVGTGLNGFYNALSELTNNDTKLTITVTGNKPILLGRTKEAFVTPTAGGWGGIPQIAFTDYKGAPVELKNPDGETNKGLAYFVLPMKNADGTEAGSVRVNASYAGAVVEKTSDSSAKLFSAYAGEVIRIFNGGLPVNVTQSELQSGVAAADRTALFGSLGKADLVAQFQAVIPGATVTDGTSSEHCTMRLLASAAYALGIADGQTIEATFNQAVTTSTQWSAPLNVAITYY
In the case of B1, the “glycan array binding signal (z-score)” value [1] is reported as -0.329, the “glycan array binding signal (z-score)” value [2] is reported as -0.363 and the “glycan array binding signal (z-score)” value [3] is reported as -0.135. The “glycan array binding signal (z-score)” value [4] was -0.256, the “glycan array binding signal (z-score)” value [5] was -0.141 and the “glycan array binding signal (z-score)” value [6] was -0.264. For the same binder, the “glycan array binding signal (z-score)” value [7] was -0.197, the “glycan array binding signal (z-score)” value [8] was -0.311 and the “glycan array binding signal (z-score)” value [9] was -0.291. The “glycan array binding signal (z-score)” value (Neu5Ac(a2-3)Gal(b1-4)Glc) was -0.384, the “glycan array binding signal (z-score)” value [10] was 0.598 and the “glycan array binding signal (z-score)” value [11] was -0.209. The “glycan array binding signal (z-score)” value [12] was -0.284, the “glycan array binding signal (z-score)” value [13] was -0.282 and the “glycan array binding signal (z-score)” value [14] was -0.324. The “glycan array binding signal (z-score)” value [15] was -0.163, the “glycan array binding signal (z-score)” value [16] was 2.09 and the “glycan array binding signal (z-score)” value [17] was -0.338. For the same binder, the “glycan array binding signal (z-score)” value [18] was -0.176, the “glycan array binding signal (z-score)” value [19] was -0.185 and the “glycan array binding signal (z-score)” value [20] was -0.186. For the same binder, the “glycan array binding signal (z-score)” value [21] was -0.21, the “glycan array binding signal (z-score)” value [22] was -0.28 and the “glycan array binding signal (z-score)” value (Neu5Ac(a2-3)GalNAc) was -0.397. For the same binder, the “glycan array binding signal (z-score)” value [23] was 0.016, the “glycan array binding signal (z-score)” value [24] was -0.374 and the “glycan array binding signal (z-score)” value [25] was -0.276. For the same binder, the “glycan array binding signal (z-score)” value [26] was -0.393, the “glycan array binding signal (z-score)” value (Neu5Ac(a2-6)Gal) was -0.322 and the “glycan array binding signal (z-score)” value (Neu5Ac(a2-6)Gal(b1-4)Glc) was 0.011. The “glycan array binding signal (z-score)” value [27] was -0.297, the “glycan array binding signal (z-score)” value [28] was -0.386 and the “glycan array binding signal (z-score)” value [29] was 2.24. The “glycan array binding signal (z-score)” value [30] was -0.382, the “glycan array binding signal (z-score)” value (Neu5Ac(a2-6)GalNAc) was -0.245 and the “glycan array binding signal (z-score)” value [31] was -0.242. The “glycan array binding signal (z-score)” value (Neu5Ac(a2-8)Neu5Ac) was 0.127, the “glycan array binding signal (z-score)” value [32] was -0.196 and the “glycan array binding signal (z-score)” value [33] was -0.168. The “glycan array binding signal (z-score)” value [34] was -0.302, the “glycan array binding signal (z-score)” value [35] was -0.153 and the “glycan array binding signal (z-score)” value [36] was -0.333. For the same binder, the “glycan array binding signal (z-score)” value [37] was -0.188, the “glycan array binding signal (z-score)” value (Neu5Ac(b1-6)GalNAc) was -0.336 and the “glycan array binding signal (z-score)” value [38] was -0.415. For the same binder, the “glycan array binding signal (z-score)” value [39] was -0.136, the “glycan array binding signal (z-score)” value [40] was -0.306 and the “glycan array binding signal (z-score)” value [41] was -0.262. The “glycan array binding signal (z-score)” value (Neu5Gc(a2-3)Gal(b1-4)Glc) was -0.398, the “glycan array binding signal (z-score)” value [42] was -0.306 and the “glycan array binding signal (z-score)” value [43] was -0.349. For the same binder, the “glycan array binding signal (z-score)” value [44] was -0.343 and the “glycan array binding signal (z-score)” value (Neu5Gc(a2-6)GalNAc) was -0.187.
